# Reference: the supplement of paper PMC12217912
# The list shows a part of the results. The full chains were built here from the parent and the listed change. Values near 0.05 are background.
# B1: TEV protease; numbered along this chain (parent)
# chain: MGESLFKGPRDYNPISSSICHLTNESDGHTTSLYGIGFGPFIITNKHLFRRNNGTLVVQSLHGVFKVKDTTTLQQHLVDGRDMIIIRMPKDFPPFPQKLKFREPQREERICLVTTNFQTKSMSSMVSDTSCTFPSGDGIFWKHWIQTKDGQCGSPLVSTRDGFIVGIHSASNFTNTNNYFTSVPKNFMELLTNQEAQQWVSGWRLNADSVLWGGHKVFMVKPEEPFQPVKEATQL
# Variants of: B1
# Test: raw area under fraction-flipped curve 0-4 h after induction (AUC4h, not background-subtracted), DNA-recorder readout of cleavage of the substrate (dimensionless); higher = more cleavage of the substrate by the protease variant
# Conditions: temperature: 34 °C; time window: 0-4 h after rhamnose induction
# Method: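 In vivo DNA recorder in E. coli TOP10(DE3) ΔrhaA at 34 °C. Each TEVp single-site mutant (parent TEVp 0) is paired with a single-site variant of the 7-mer TEVs (canonical ENLYFQ|S). The substrate sits between flexible linkers in a Bxb1-sfGFP-TEVs-SsrA fusion, so cleavage stabilises Bxb1 and speeds flipping of a recombination array, read by NGS. The value is the raw area under the fraction-flipped curve over 0-4 h after rhamnose induction (AUC4h), with ≥20 reads per time point. It is not background-subtracted; inactive controls average about 0.047.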
# 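Further: Bxb1 expression induced with 0.2% (w/v) L-rhamnose at OD600 near 0.5, cultures sampled hourly, flipped fraction per protease–substrate barcode pair counted by paired-end Illumina sequencing.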
Variant,area with substrate ENLYCQS,area with substrate ENLYDQS,area with substrate ENLYEQS,area with substrate ENLYGQS,area with substrate ENLYHQS,area with substrate ENLYIQS,area with substrate ENLYKQS,area with substrate ENLYLQS,area with substrate ENLYNQS,area with substrate ENLYPQS,area with substrate ENLYQQS,area with substrate ENLYRQS,area with substrate ENLYSQS,area with substrate ENLYVQS,area with substrate ENLYWQS,area with substrate ENLYYQS,area with substrate ENLYMQS,area with substrate ENLYTQS
MGESLFKGPRDYNPISSSICHLTNESDGHTTSLYGIGFGPFIITNKHLFRRNNGTLVVQSLHGVFKVKDTTTLQQHLVDGRDMIIIRMPKDFPPFPQKLKFREMQREERICLVTTNFQTKSMSSMVSDTSCTFPSGDGIFWKHWIQTKDGQCGSPLVSTRDGFIVGIHSASNFTNTNNYFTSVPKNFMELLTNQEAQQWVSGWRLNADSVLWGGHKVFMVKPEEPFQPVKEATQL [P104M],0.0486,0.0613,0.0613,0.0477,0.0564,0.0721,0.0649,0.0565,0.0569,0.0651,0.043,0.0645,0.0529,0.0538,0.0694,0.0517,,
MGESLFKGPRDYNPISSSICHLTNESDGHTTSLYGIGFGPFIITNKHLFRRNNGTLVVQSLHGVFKVKDTTTLQQHLVDGRDMIIIRMPKDFPPFPQKLKFREIQREERICLVTTNFQTKSMSSMVSDTSCTFPSGDGIFWKHWIQTKDGQCGSPLVSTRDGFIVGIHSASNFTNTNNYFTSVPKNFMELLTNQEAQQWVSGWRLNADSVLWGGHKVFMVKPEEPFQPVKEATQL [P104I],0.0616,0.0571,0.0609,0.0533,0.0607,0.0752,0.0584,,0.056,0.0521,0.0547,0.0586,0.0661,0.0677,0.058,0.0543,0.061,0.0686
MGESLFKGPRDYNPISSSICHLTNESDGHTTSLYGIGFGPFIITNKHLFRRNNGTLVVQSLHGVFKVKDTTTLQQHLVDGRDMIIIRMPKDFPPFPQKLKFREPQREERICLVTTNFQTKSMSSMVSDTSCTFPSGDGIFWKHWIQTKDGQCGSPLVSTRDGFIVGIFSASNFTNTNNYFTSVPKNFMELLTNQEAQQWVSGWRLNADSVLWGGHKVFMVKPEEPFQPVKEATQL [H168F],0.0626,0.0558,0.0584,,0.0651,,,,0.0643,,0.0655,0.106,,0.0671,,0.0652,0.054,
MGESLFKGPRDYNPISSSICHLTNESDGHTTSLYGIGFGPFIITNKHLFRRNNGTLVVQSLHGVFKVKDTTTLQQHLVDGRDMIIIRMPKDFPPFPQKLKFREPQREERICLVTTNFQTKSMSSMVSETSCTFPSGDGIFWKHWIQTKDGQCGSPLVSTRDGFIVGIHSASNFTNTNNYFTSVPKNFMELLTNQEAQQWVSGWRLNADSVLWGGHKVFMVKPEEPFQPVKEATQL [D128E],0.196,0.0722,0.0737,0.0738,0.0618,,,,0.0766,0.1,,0.0566,,0.132,0.0717,,,0.0664
MGESLFKGPRDYNPISSSICHLTNESDGHTTSLYGIGFGPFIITNKHKFRRNNGTLVVQSLHGVFKVKDTTTLQQHLVDGRDMIIIRMPKDFPPFPQKLKFREPQREERICLVTTNFQTKSMSSMVSDTSCTFPSGDGIFWKHWIQTKDGQCGSPLVSTRDGFIVGIHSASNFTNTNNYFTSVPKNFMELLTNQEAQQWVSGWRLNADSVLWGGHKVFMVKPEEPFQPVKEATQL [L48K],0.0556,0.0605,0.0582,,0.0545,0.0619,0.0485,0.0557,0.0551,0.0447,0.064,0.0448,,,0.0651,0.0629,0.0703,0.0523
MGESLFKGPRDYNPISSSICHLTNESDGHTTSLYGIGFGPFIITNKHLFRRNNGTLVVQSLHGVFKVKDTTTLQQHLVDGRDMIIIRMPKDFPPFPQKLKFREPQREERICLVTTNFQTKSMSSMVSDTSCTFPSHDGIFWKHWIQTKDGQCGSPLVSTRDGFIVGIHSASNFTNTNNYFTSVPKNFMELLTNQEAQQWVSGWRLNADSVLWGGHKVFMVKPEEPFQPVKEATQL [G136H],0.0979,0.0649,0.0613,0.0729,0.0622,,0.0504,0.0855,0.0612,0.0734,0.0805,0.0431,0.0869,0.117,0.0782,0.0661,0.0818,0.0767
MGESLFKGPRDYNPISSSICHLTNESDGHTTSLYGIGFGPFIITNKHLFRRNNGTLVVQSLHGVFKVKDTTTLQQHLVDGRDMIIIRMPKDFPPFPQKLKFREPQREERICLVTTNFQTKSMSSMVSDTSCTFPSGDGIFWKHWIQTKDGQCGSPLVSTRDGFIVGIHSASNFTNTNNYFTSVPKNFMELLTNQEAQQWVSGWRLNADSVLWGGHQVFMVKPEEPFQPVKEATQL [K216Q],0.0997,,,0.062,0.0708,0.138,,,0.0687,,,0.0406,0.0658,0.0953,,0.0696,0.0604,0.0904
MGESLFKGPRDYNPISSSICHLTNESDGHTTSLYGIGFGPFIITNKHLFRRNNGTLVVQSLHGVFKVKDTTTLQQHLVDGRDMIIIRMPKDFPPFPQKLKFREPQREERICLVTTNFQTKSMSSMVSDTSCTFPSGDGIFWKHWIQTKDGQCGSPLVSTRDGFIVGIHSASNFTNTNNYFTSVPKNFMELLTNQEAQQWVSGWRLNADSVLWGGHGVFMVKPEEPFQPVKEATQL [K216G],0.0662,0.0855,,0.056,0.0503,0.0612,0.0299,0.0592,0.0465,0.0354,,0.0483,0.0549,,0.108,0.0344,0.0563,
MGESLFKGPRDYNPISSSICHLTNESDGHTTSLYGIGFGPFIITNKHLFRRNNGTLVVQSLHGVFKVKDTTTLQQHLVDGRDMIIIRMPKDFPPFPQKLKFREPQREERICLVTTNFQTKSMSSMVSDTSCTFPSGDGIFWKHWIQTKDGQCGSPLVSTRDGFIVGIHSASNFTNTNNYFTSVPKNFMELLTNQEAQQWVSGWRLNADSVLWGGHKVFMVKPEEPFQPVKESTQL [A232S],0.117,,0.0517,0.0371,0.0612,0.145,0.0559,0.0679,,0.0687,,0.071,0.0685,0.175,0.097,0.0712,0.0895,
